Reference: the supplement of paper PMC3334620
The full ranking holds about 33,000 sequences; the median of “E-score (-0.5 to 0.5)” is about -0.036, and the highest 2% start at about 0.37. The list shows a part of the results.

Molecular target: T1, Yer064c (UniProt P40041)
T1 sequence: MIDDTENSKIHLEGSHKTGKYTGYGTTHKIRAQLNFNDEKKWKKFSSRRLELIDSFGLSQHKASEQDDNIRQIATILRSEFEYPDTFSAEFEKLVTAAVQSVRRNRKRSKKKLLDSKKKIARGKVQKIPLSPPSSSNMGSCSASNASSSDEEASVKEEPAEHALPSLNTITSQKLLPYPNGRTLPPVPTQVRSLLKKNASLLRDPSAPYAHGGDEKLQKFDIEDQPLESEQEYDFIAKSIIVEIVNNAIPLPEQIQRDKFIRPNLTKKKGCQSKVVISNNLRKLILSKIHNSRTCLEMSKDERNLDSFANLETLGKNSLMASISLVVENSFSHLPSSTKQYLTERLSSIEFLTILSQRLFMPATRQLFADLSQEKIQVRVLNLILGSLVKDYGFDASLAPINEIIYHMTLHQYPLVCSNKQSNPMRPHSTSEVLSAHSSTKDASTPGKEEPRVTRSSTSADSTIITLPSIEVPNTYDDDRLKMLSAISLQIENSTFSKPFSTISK
Experiment: PBM E-score (8-mer binding enrichment) (E-score (-0.5 to 0.5)); higher = stronger / more preferred TF binding; most listed sequences are background and not binding sites
Details: protein concentration: 200 nM; construct: GST-full length
In short: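 Using PURExpress in vitro transcription/translation, GST-tagged yeast transcription factors were made in full-length or DNA-binding-domain form. These were applied at about 100-200 nM to double-stranded universal all-10-mer Agilent arrays, and bound protein was detected with fluorescent anti-GST. Scans were normalised with masliner before the Universal PBM Analysis Suite assigned E-scores to ungapped eight-base words pooled with their reverse complements.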

Sequence | PBM E-score
GAACCATA | 0.241
CCTTGAAA | -0.0724
ATGCGGTG | -0.114
ATAAGCAA | -0.0114
TGAGTACA | 0.376
CCCTATGA | 0.0506
CCATTGCG | -0.082
TCATTGGA | 0.17
CTCATTAA | 0.248
TGATGAAA | -0.0162
GCAGGAAA | -0.141
AATTAGTA | 0.103
AGTCTCTA | 0.222
CGAAGAAC | 0.0391
CTCAGTTA | 0.146
CCGGTAGC | -0.018
CTCTCTCC | -0.18
GTGCGAGA | 0.103
CGGTCGAG | -0.0852
CTCCCTGC | 0.0263
ATTGCACG | 0.0596
GAGGACGA | 0.0459
ACACCTCG | -0.135
CGCAATAA | -0.0755
CTTGCGGA | -0.0554

Sequence | PBM E-score
ATGTGTGC | 0.00354
CATAACGA | -0.0272
TAGTGCAA | 0.0408
ACGTAACA | -0.0715
ATCTAAGA | 0.0947
ACGGCCGT | -0.281
AAGGGAAC | -0.2
GGACCGAA | -0.00554
ATTACAGG | 0.181
ATGACAGA | -0.123
ACATATAA | 0.108
AACTACGT | -0.108
GTTAGCCA | 0.246
GCCGGCAC | -0.273
GGATGCAC | -0.235
AGTTGGTC | -0.0336
ATTCGAAA | -0.0231
GGGGCCAC | -0.173
CAACAGCG | -0.251
ACGCTCGG | -0.0254
AACGCCCT | -0.191
CGGAGGAG | -0.258
GAGGGACC | -0.296
CTTAAGTC | 0.263
CAAATCGC | -0.0553

Sequence | PBM E-score
AAAACGAT | 0.0576
CAAGGAGA | -0.00692
ATTATACA | 0.108
AGCGACAT | -0.152
CCGAACCG | -0.134
ACCTTTAC | -0.0457
GGCGGTGA | 0.119
GCAGTCGA | -0.0557
ACGGCTAA | 0.00286
TATCAACA | 0.154
CGCGCCCA | -0.0669
TAACTTAA | 0.154
GAGACAAA | 0.00213
CTTAATAA | 0.136
AACAGTGC | -0.188
CACGAGTG | -0.125
GAAATAAC | 0.0935
ACAGAAAG | 0.107
AGAGTGTC | 0.101
CTCAAAGA | 0.139
CAGGTCCC | -0.355
AGCACATG | 0.15
GTATAGTA | -0.12
ATATGCAT | -0.153
ATGAAGTA | -0.0139

Sequence | PBM E-score
AGTTCAGC | 0.0111
AATCTCGT | 0.154
CCTCACAA | 0.038
TAAAAATA | 0.205
GAATATAC | 0.0606
GTCGTCAA | 0.113
CGATTGGA | 0.081
GGGCACTA | -0.21
ACTATAAA | 0.175
ATATCTTG | 0.143
AATCGACG | 0.0737
AACAACAG | 0.0614
CAAGGACA | -0.125
CATAGTCG | 0.374
CTGGTAGC | -0.149
ACCGGACG | 0.0393
ACCCTCCG | -0.227
CGTATTGA | 0.139
AAGAATGC | 0.0688
AGCGCTTG | -0.094
GTGGTAAC | -0.0786
ATATGGAA | 0.00587
CGTCAAAA | -0.0525
ACGACTAC | 0.415
GCTGTGAC | 0.225

Sequence | PBM E-score
ATCCTCCA | -0.0903
TCTGTTCA | -0.0445
CTATAGGA | -0.0485
ACACCCCA | -0.0167
CAACAGTG | -0.139
CTACTACA | 0.119
ACTATGAG | 0.334
CGATTGAG | 0.23
GAATTATA | -0.106
AATGTCGA | -0.145
GGAAGAAC | -0.0746
AGGAGTCA | 0.486
CGACGACA | -0.15
ACCACGGC | 0.043
CGTTCGAG | -0.0632
CAATTGTC | -0.142
ACACTACG | -0.141
ATCTCGGA | 0.112
GACTTATA | 0.387
GCATTGTA | -0.112
AGTGTCGA | -0.00525
TTCATAAA | 0.0721
GGCGACGA | -0.226
CGGGCTTC | -0.257
ACAGGAAC | -0.107

Sequence | PBM E-score
AAATGCGA | 0.12
ACGTGGCA | -0.315
CCGCCTCG | -0.168
ACCCACGG | -0.136
AGGTTGTA | -0.118
CACAGAAG | -0.0154
ACGATATA | -0.236
CCTCCAAC | -0.129
TCATCCGA | 0.24
CCGACGCG | 0.0049
TAGCAGCA | -0.0436
TAATGGGA | -0.109
ATATAAGC | -0.202
ACATGCTC | -0.115
CCGTGCCA | -0.202
GGCAAAAC | -0.126
CACGAAAC | -0.0727
GCAATACC | -0.127
GCGACCTA | -0.00094
AGGACAAC | -0.0457
GCTGGTGA | 0.0962
CCTAAGCG | -0.128
GAAATTTA | 0.256
ATAAAAGG | -0.0253
GGAAAGAC | 0.0683

Sequence | PBM E-score
TCTATTAA | 0.107
AGTCCAAG | 0.194
CAGGCTGC | 0.0146
GTATTAAA | 0.0423
CCTAACAA | -0.0869
CATCGCTC | -0.0372
TACTTTGA | 0.232
TAACGGTA | -0.0304
GGGTCCGA | -0.0665
CCCCTAAA | -0.281
CCTGATAA | 0.0692
CCAGGAGA | -0.0506
CATGGAGA | 0.137
GGATCGCA | -0.0924
ATGGAAGC | -0.207
CAGACATC | 0.121
AATGCGGG | -0.00843
CCGATAAC | -0.0686
ACAGTGAT | 0.128
ATTAGGAG | 0.225
GGCGGTAA | 0.00894
GTTTTGAA | 0.17
